In the supplement of paper PMC9174493:
This is one part of the list. Single values of this set are uncertain. Values with irradiation are relative to irradiated vehicle.

test system: A549-Dual; assay: NF-kB reporter (SEAP) activity, viability-corrected, relative to vehicle (fold change vs vehicle); higher = more activation of STING-IRF / NF-kB immune response reporter; settings: 10 µM; irradiation: 8 Gy/4 fr
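Further: viability correction based on the alamar blue assay, with concentrations leaving 10% survival or less dropped.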

Row | Structure (SMILES) | NF-kB reporter
1 | COc1cc2nccc(Oc3ccc(NC(=O)Nc4cc(C)on4)c(Cl)c3)c2cc1OC [Tivozanib (AV-951)] | 0.612
2 | Oc1ccc(/C=C/c2cc(O)cc(O)c2)cc1 [Resveratrol] | 0.931
3 | Nc1cccc2c1C(=O)N(C1CCC(=O)NC1=O)C2=O (configuration not stated) [Pomalidomide] | 0.854
4 | COc1cc(C2c3cc4c(cc3C(OC3OC5COC(c6cccs6)OC5C(O)C3O)C3COC(=O)C23)OCO4)cc(OC)c1O (configuration not stated) [Teniposide] | 1.08
5 | S=c1nc[nH]c2nc[nH]c12 [Mercaptopurine (6-MP)] | 0.832
6 | CC(C(=O)O)c1ccc2c(c1)CC(=O)c1ccccc1S2 (configuration not stated) [Zaltoprofen] | 0.826
7 | Cc1nc(Nc2ncc(C(=O)Nc3c(C)cccc3Cl)s2)cc(N2CCN(CCO)CC2)n1.Cl [Dasatinib hydrochloride] | 0.625
8 | O=c1[nH]cc(F)c(=O)[nH]1 [Fluorouracil (5-Fluoracil, 5-FU)] | 1.04
9 | COc1cc(/C=C/C(=O)/C=C(O)/C=C/c2ccc(O)c(OC)c2)ccc1O [Curcumin] | 0.889

same assay, conditions: 10 µM; irradiation: none

Row | Structure (SMILES) | NF-kB reporter
10 | CC1=C(CC(=O)O)c2cc(F)ccc2/C1=C\c1ccc(S(C)=O)cc1 (configuration not stated) [Sulindac] | 1.04
11 | C1N2CN3CN1CN(C2)C3 [Methenamine] | 1.34
12 | COc1ccc2cc(C(C)C(=O)[O-])ccc2c1.[Na+] (configuration not stated) [Naproxen Sodium] | 1.02
13 | Cc1ccc(Cl)c(Nc2ccccc2C(=O)[O][Na])c1Cl [Meclofenamate Sodium] | 0.918
14 | O=C(OCCOCCO)c1ccccc1Nc1cccc(C(F)(F)F)c1 [Etofenamate] | 1.03
15 | O=C([O-])c1cc(N=Nc2ccc(O)c(C(=O)[O-])c2)ccc1O.[Na+].[Na+] [Olsalazine Sodium] | 0.766
16 | CC(=O)Nc1ccc(OC(=O)c2ccccc2OC(C)=O)cc1 [Benorylate] | 1.02
17 | CO/N=C(\C(=O)NC1C(=O)N2C(C(=O)OCOC(=O)C(C)(C)C)=C(C)CSC12)c1csc(N)n1.Cl (configuration not stated) [Cefetamet pivoxil hydrochloride] | 1.07
18 | CCC(C(=O)O)c1ccc(N2Cc3ccccc3C2=O)cc1 (configuration not stated) [Indobufen] | 0.876
19 | CS(=O)(=O)O.Cc1ccc(NC(=O)c2ccc(CN3CCN(C)CC3)cc2)cc1Nc1nccc(-c2cccnc2)n1 [Imatinib Mesylate (STI571)] | 0.815
20 | CC(C(=O)O)c1ccc(C(=O)c2ccccc2)s1 (configuration not stated) [Tiaprofenic acid] | 0.829
21 | CCc1nc(N)nc(N)c1-c1ccc(Cl)cc1 [Pyrimethamine] | 1.8
22 | COc1cc(C2c3cc4c(cc3C(OC3OC5COC(C)OC5C(O)C3O)C3COC(=O)C23)OCO4)cc(OC)c1O (configuration not stated) [Etoposide] | 1.32
23 | CN(C)CCC(c1ccc(Br)cc1)c1ccccn1.O=C(O)/C=C\C(=O)O (configuration not stated) [Brompheniramine hydrogen maleate] | 0.902
24 | CC12CCC3c4ccc(O)cc4CC(CCCCCCCCCS(=O)CCCC(F)(F)C(F)(F)F)C3C1CCC2O (configuration not stated) [Fulvestrant] | 0.976
25 | O=C([O-])CC(O)(CC(=O)[O-])C(=O)[O-].O=C([O-])CC(O)(CC(=O)[O-])C(=O)[O-].[BiH6+3].[K+].[K+].[K+] [Gastrodenol] | 1.2
26 | CCCCC1(COC(=O)CCC(=O)O)C(=O)N(c2ccccc2)N(c2ccccc2)C1=O [Suxibuzone] | 1.31
27 | O=C(O)Cc1ccccc1Nc1c(Cl)cccc1Cl.OCCN1CCCC1 [Diclofenac Epolamine] | 0.824
28 | Cl.N=C1CCCN1Cc1[nH]c(=O)[nH]c(=O)c1Cl.O=c1[nH]c(=O)n(C2CC(O)C(CO)O2)cc1C(F)(F)F.O=c1[nH]c(=O)n(C2CC(O)C(CO)O2)cc1C(F)(F)F (configuration not stated) | 1.34
29 | NC(CO)(CO)CO [Trometamol] | 0.974
30 | COc1ccc2c(c1)c(CC(=O)O)c(C)n2C(=O)c1ccc(Cl)cc1 [Indomethacin] | 0.834
31 | Cn1cnc([N+](=O)[O-])c1Sc1ncnc2nc[nH]c12 [Azathioprine] | 0.794
32 | NCCNc1ccc(NCCN)c2c1C(=O)c1ccncc1C2=O.O=C(O)/C=C\C(=O)O.O=C(O)/C=C\C(=O)O [Pixantrone Maleate] | 1.88
